Source: PubChem BioAssay (NCATS)
Inconclusive results, whose numbers are uncertain, are shown with a selection of clear calls. Where a call stands in place of a potency, no number is given. Calls of active or inactive are those of the source. Unless noted, the call rests on the fitted dose curve; in most records, active means well fitted curve in the direction sought with a large enough effect; inconclusive means small, poorly fitted or top-dose-only effect, or another doubt; inactive means no such curve, though single readings can be large; an effect the other way counts as inactive or inconclusive.

How the values were obtained:
[1] = Cell Viability - BJ (AID 421; calls by dose curve;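 further: potency means the concentration at half of the fitted maximal effect; cells exposed to compound for 40 hours at 37 °C before readout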); conditions: BJ fibroblast viability, qHTS
Summary of the method: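 Luminescent ATP signal (CellTiter-Glo, 20 min at room temperature) served as the read-out of viable BJ cells after 40 hours of compound treatment. Responses were scaled between DMSO and 100 uM tamoxifen, and AC50 values were obtained by Hill modeling.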

[2] = Cell Viability - N2a (AID 540); conditions: N2a mouse neuroblastoma cell viability; activity change, negative = cytotoxicity: at 92.2 µM (top of the series); further: nearly all actives have a fitted effect of over 45% in size
Summary of the method: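 CellTiter-Glo ATP luminescence, read 20 min after reagent at room temperature, reported viability following 40 h compound treatment at 37 °C. N2a mouse neuroblastoma cells seeded 1500/well; Hill equation gave AC50.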

[3] = Cellular Toxicity (caspase-3) Hek293 (AID 664); conditions: HEK293 caspase-3 activation, DMSO = 0%, 100 µM tamoxifen = 100%; at 92.2 µM (top of the series);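 further: cells exposed to compound for 16 h at 37 °C before readout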
Summary of the method: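 Concentration-response qHTS: caspase 3/7 activation measured by luminescent aminoluciferin substrate cleavage after 16 h compound exposure of Hek 293 cells. AC50 from Hill equation, with DMSO as basal and 100 uM tamoxifen as 100%.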

[4] = molecular target: Cytochrome P450 3A4 (Homo sapiens) (UniProt P08684); experiment: qHTS Assay for Inhibitors and Substrates of Cytochrome P450 3A4 (AID 884); conditions: recombinant CYP3A4, Luciferin-PPXE luminescence; series mostly up to 57.1 µM; further: nearly all actives have a fitted effect of over 50% in size
UniProt P08684, sequence (P08684 whole entry, looked up): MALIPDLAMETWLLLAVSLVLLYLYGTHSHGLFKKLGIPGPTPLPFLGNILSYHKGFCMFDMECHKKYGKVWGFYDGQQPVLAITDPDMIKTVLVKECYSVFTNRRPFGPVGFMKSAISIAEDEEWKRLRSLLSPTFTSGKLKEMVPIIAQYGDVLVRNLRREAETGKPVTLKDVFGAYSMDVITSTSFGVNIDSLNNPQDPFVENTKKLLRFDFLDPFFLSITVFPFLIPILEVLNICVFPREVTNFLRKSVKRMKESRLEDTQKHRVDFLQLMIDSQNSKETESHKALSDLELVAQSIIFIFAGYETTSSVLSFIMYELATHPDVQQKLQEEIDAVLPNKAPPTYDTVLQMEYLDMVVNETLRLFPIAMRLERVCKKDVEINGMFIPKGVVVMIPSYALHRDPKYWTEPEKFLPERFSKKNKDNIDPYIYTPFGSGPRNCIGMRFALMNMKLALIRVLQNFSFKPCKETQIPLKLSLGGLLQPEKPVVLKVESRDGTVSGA
Summary of the method: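 Luminescent readout of luciferin produced by CYP3A4 (20 nM) dealkylation of Luciferin-PPXE, 25 uM (its KM). NADPH-driven reaction ran 60 min at RT after 10 min compound preincubation; data scaled to 57 uM ketoconazole as 100% inhibition.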

[5] = Cell Viability - LYMP2-007 (AID 979); conditions: LYMP2-007 lymphoblastoid cell viability; activity change, negative = cytotoxicity: at 92.2 µM (top of the series);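 further: cells exposed to compound for 24 h before reading; nearly all actives have a fitted effect of over 60% in size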
Summary of the method: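 AC50 values come from Hill-equation fits of luminescent intracellular ATP (CellTiter-Glo, 30 min, room temperature) following 24 h compound exposure at 37 C. Cells: LYMP2-007 lymphoblastoid line, 2500 per well, in complete culture medium.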

[6] = molecular target: Thyroid hormone receptor beta (Homo sapiens) (UniProt P10828); experiment: qHTS assay for small molecule antagonists of thyroid hormone receptor beta signaling (AID 588547; active means well fitted inhibition curve with a large enough effect in the signal ratio, with a control signal flat, not every such curve was filed as active; inconclusive means small, poorly fitted or top-dose-only effect, or effect the other way, or a change in a side signal; the % refers to the signal ratio;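 further: cells stimulated with 0.4 nM T3 agonist during compound exposure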); conditions: TR-UAS-bla HEK293, beta-lactamase ratio, antagonist mode, 18 h
UniProt P10828, sequence (P10828 whole entry, looked up): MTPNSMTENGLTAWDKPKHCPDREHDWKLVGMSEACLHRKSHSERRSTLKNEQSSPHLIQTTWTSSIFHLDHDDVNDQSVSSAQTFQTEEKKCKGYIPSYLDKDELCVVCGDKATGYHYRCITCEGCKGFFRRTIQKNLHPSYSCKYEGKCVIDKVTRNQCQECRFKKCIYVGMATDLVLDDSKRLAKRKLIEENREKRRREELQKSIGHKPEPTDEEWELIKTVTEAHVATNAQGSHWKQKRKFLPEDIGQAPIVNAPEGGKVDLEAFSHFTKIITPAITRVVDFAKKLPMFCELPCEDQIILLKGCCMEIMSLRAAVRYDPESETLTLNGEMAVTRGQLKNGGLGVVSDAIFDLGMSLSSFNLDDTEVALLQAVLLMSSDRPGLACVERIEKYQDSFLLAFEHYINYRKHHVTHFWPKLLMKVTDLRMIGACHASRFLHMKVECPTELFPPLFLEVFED
Summary of the method: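 TR-UAS-bla GripTite HEK293 cells in 2% charcoal/dextran FBS medium; compounds 0.59 nM to 92 uM with T3 at 0.4nM final, 18 h at 37 C. Beta-lactamase read by CCF4 fluorescence (460/530 nm); Hill fits gave IC50 and efficacy.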

[7] = molecular target: Nuclear receptor ROR-gamma (Homo sapiens) (UniProt P51449); experiment: qHTS assay for small molecule antagonists of the retinoid-related orphan receptor gamma (ROR-gamma) signaling pathway (AID 651802); conditions: ROR-gamma antagonist cell reporter assay; series mostly up to 92.2 µM;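 further: CHO cells with doxycycline-induced ROR-gamma expression; luciferase reporter luminescence driven by ROR response element; nearly all actives have a fitted effect of over 60% in size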
UniProt P51449, sequence (P51449 whole entry, looked up): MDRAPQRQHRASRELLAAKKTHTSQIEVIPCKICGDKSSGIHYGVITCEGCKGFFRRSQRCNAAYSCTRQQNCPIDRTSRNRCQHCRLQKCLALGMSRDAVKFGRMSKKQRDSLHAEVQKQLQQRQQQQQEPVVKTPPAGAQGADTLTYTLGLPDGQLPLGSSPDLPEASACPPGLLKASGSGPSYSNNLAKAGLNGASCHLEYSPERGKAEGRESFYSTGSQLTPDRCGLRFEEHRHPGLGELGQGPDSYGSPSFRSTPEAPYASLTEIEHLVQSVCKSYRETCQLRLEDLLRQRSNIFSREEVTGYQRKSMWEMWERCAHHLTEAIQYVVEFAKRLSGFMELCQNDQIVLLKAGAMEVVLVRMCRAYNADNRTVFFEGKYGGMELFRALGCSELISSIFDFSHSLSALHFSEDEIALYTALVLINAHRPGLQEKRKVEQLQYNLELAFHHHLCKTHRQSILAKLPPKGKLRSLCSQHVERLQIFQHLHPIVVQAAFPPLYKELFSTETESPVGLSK
Summary of the method: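 Luminescence (One-Glo, 30 min RT) measured 16 h after compound addition and doxycycline induction at 37C. Reporter: RORE-luciferase under TET-inducible ROR-gamma in CHO cells.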

[8] = Cell Viability - NIH 3T3 (AID 541); conditions: NIH 3T3 cell viability, qHTS; activity change, negative = cytotoxicity: at 92.2 µM (top of the series); further: nearly all actives have a fitted effect of over 25% in size
Summary of the method: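 Intracellular ATP (CellTiter-Glo luminescence, 20 min at room temperature) measured after 40 hr compound exposure at 37 °C of 1000 NIH 3T3 mouse fibroblasts/well in complete medium; AC50 derived by Hill-equation modelling of qHTS concentration-response curves.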

[9] = MultiTox-Fluor Cytotoxicity Assay - LYMP1-001 - Live Cells (AID 947); conditions: LYMP1-001 lymphoblastoid cells, live-cell protease fluorescence viability; series mostly up to 92.2 µM
[10] = MultiTox-Fluor Cytotoxicity Assay - LYMP1-002 - Dead Cells (AID 960); conditions: LYMP1-002 lymphoblastoid cells, dead-cell protease fluorescence; cytotoxicity (dead cells): at 46.1 µM (top of the series); further: nearly all actives have a fitted effect of over 60% in size
Summary of the method: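 Dead-cell fluorescence (Ex/Em 485/520) after 16 h compound exposure at 37 C of LYMP1-002 lymphoblastoid cells in complete medium; AC50 by Hill equation, with data scaled between DMSO and 15 uM tetraoctylammonium bromide.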

[11] = Cell Viability - LYMP1-003 - Assay at 40 hr (AID 964); conditions: LYMP1-003 lymphoblastoid viability; series mostly up to 92.2 µM; further: nearly all actives have a fitted effect of over 60% in size
Summary of the method: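 Viability is taken as cellular ATP, read by CellTiter-Glo luminescence after 40 h of compound exposure at 37 C. Cells: human lymphoblastoid line LYMP1-003 at 2500/well; AC50 values derived by Hill-equation fitting of concentration-response data.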

[12] = molecular target: Peroxisome proliferator-activated receptor gamma (Homo sapiens) (UniProt P37231); experiment: qHTS assay for small molecule antagonists of peroxisome proliferator-activated receptor gamma signaling (AID 588537; active means well fitted inhibition curve with a large enough effect in the signal ratio, with a control signal flat, not every such curve was filed as active; inconclusive means small, poorly fitted or top-dose-only effect, or effect the other way, or a change in a side signal; the % refers to the signal ratio;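 further: reporter cells co-stimulated with 50 nM rosiglitazone agonist during compound treatment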); conditions: HEK293 PPARg-UAS-bla, beta-lactamase ratio, antagonist mode; activity, negative = inhibition: at 76.8 µM (top of the series)
Summary of the method: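 Fluorescence at 460 and 530 nm (405 nm excitation) reported beta-lactamase cleavage of CCF4 after 2 h room-temperature loading. HEK293 reporter cells in 1% charcoal/dextran-treated FBS had received compound and rosiglitazone for 16 h.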

[13] = qHTS assay to identify small molecules that stimulate interleukin-8 (IL-8) secretion (AID 651758; active means well fitted activation curve with a large enough effect in the signal ratio; inconclusive means small, poorly fitted or top-dose-only effect, or effect the other way, or a change in a side signal; the % refers to the signal ratio); conditions: HTRF ratio (665/615); activation: at 92.2 µM (top of the series)
Summary of the method: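 Compounds are added to THP-1 cells (2000 per well) and left 16 hrs at 37 C. A labeled anti-IL-8 antibody pair is then added, and IL-8 secretion is measured by time-resolved FRET after 1-3 hrs at room temperature.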

| Structure (SMILES) | Potency [1] | Potency [2] | caspase-3 activation [3] | Potency [4] | Potency [5] | activity change % (negative = inhibition) [6] | Potency [7] | activity change, negative = cytotoxicity [8] | Potency [9] | Potency [10] | Potency [11] | activity, negative = inhibition [12] | Potency [13] |
| --- | --- | --- | --- | --- | --- | --- | --- | --- | --- | --- | --- | --- | --- |
| C=CCCC | inactive: > 92 µM | inactive | inactive: -1.75% | inactive | inactive | inactive: 20.1% | inactive |  |  |  |  |  |  |
| Cc1cc(C)cc([N+](=O)[O-])c1 | inactive: > 92 µM |  |  |  |  | inconclusive: -8.96% |  | inactive: -12.4% | inactive | inactive | inactive | inconclusive: -5.14% | inactive |
